Laboratory results as given in the supplement of paper PMC12217912.
The list shows a part of the results. The full chains were built here from the parent and the listed change. Values near 0.05 are background.

B1: TEV protease; numbered along this chain (parent)
chain: MGESLFKGPRDYNPISSSICHLTNESDGHTTSLYGIGFGPFIITNKHLFRRNNGTLVVQSLHGVFKVKDTTTLQQHLVDGRDMIIIRMPKDFPPFPQKLKFREPQREERICLVTTNFQTKSMSSMVSDTSCTFPSGDGIFWKHWIQTKDGQCGSPLVSTRDGFIVGIHSASNFTNTNNYFTSVPKNFMELLTNQEAQQWVSGWRLNADSVLWGGHKVFMVKPEEPFQPVKEATQL

Variants of: B1
Assay: raw area under fraction-flipped curve 0-4 h after induction (AUC4h, not background-subtracted), DNA-recorder readout of cleavage of the substrate (dimensionless); higher = more cleavage of the substrate by the protease variant
Conditions: temperature: 34 °C; time window: 0-4 h after rhamnose induction
Description: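 In vivo DNA recorder in E. coli TOP10(DE3) ΔrhaA at 34 °C. Each TEVp single-site mutant (parent TEVp 0) is paired with a single-site variant of the 7-mer TEVs (canonical ENLYFQ|S). The substrate sits between flexible linkers in a Bxb1-sfGFP-TEVs-SsrA fusion, so cleavage stabilises Bxb1 and speeds flipping of a recombination array, read by NGS. The value is the raw area under the fraction-flipped curve over 0-4 h after rhamnose induction (AUC4h), with ≥20 reads per time point. It is not background-subtracted; inactive controls average about 0.047.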
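Further: Bxb1 expression induced with 0.2% (w/v) L-rhamnose at OD600 near 0.5, cultures sampled hourly, flipped fraction per protease–substrate barcode pair counted by paired-end Illumina sequencing.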

Row | Variant | area with substrate ENLYFQA | area with substrate ENLYFQC | area with substrate ENLYFQF | area with substrate ENLYFQG | area with substrate ENLYFQI | area with substrate ENLYFQK | area with substrate ENLYFQL | area with substrate ENLYFQM | area with substrate ENLYFQN | area with substrate ENLYFQR | area with substrate ENLYFQS | area with substrate ENLYFQT | area with substrate ENLYFQV | area with substrate ENLYFQW | area with substrate ENLYFQD | area with substrate ENLYFQH | area with substrate ENLYFQY | area with substrate ENLYFQE | area with substrate ENLYFQP | area with substrate ENLYFQQ
1 | Q105Y | 0.0902 | 0.104 | 0.0712 | 0.106 | 0.0594 | 0.0661 | 0.0634 | 0.0755 | 0.0811 | 0.0413 | 0.101 | 0.0613 | 0.0816 | 0.0648 | – | – | – | – | – | –
2 | K68V | 0.0942 | 0.105 | – | – | – | 0.0462 | 0.0747 | 0.13 | 0.0752 | 0.0467 | 0.0976 | 0.086 | – | 0.0682 | 0.0656 | 0.0568 | 0.0755 | – | – | –
3 | K68C | 0.107 | – | 0.0518 | 0.0828 | 0.0566 | 0.0599 | 0.0685 | – | 0.096 | – | 0.109 | – | 0.0595 | – | 0.0679 | 0.0635 | 0.0927 | 0.067 | 0.0546 | 0.0697
4 | R106T | 0.0788 | – | – | 0.106 | 0.0516 | – | 0.059 | 0.0875 | 0.0691 | 0.0651 | 0.107 | 0.0763 | 0.0669 | 0.0733 | 0.0628 | 0.0734 | – | – | 0.0693 | 0.0733
5 | G63H | 0.0565 | 0.0974 | – | 0.0933 | 0.068 | – | 0.0552 | 0.0891 | 0.0728 | 0.078 | 0.0977 | 0.0567 | – | 0.0556 | 0.0656 | 0.0809 | – | – | 0.075 | 0.0738
6 | D91F | 0.137 | 0.0924 | – | 0.0859 | 0.0343 | 0.0622 | 0.0518 | – | 0.0866 | 0.064 | 0.0934 | 0.0647 | 0.0639 | 0.0824 | 0.0632 | 0.0719 | – | – | 0.0706 | –
7 | D91W | 0.0508 | 0.0933 | 0.0789 | 0.099 | 0.095 | 0.0705 | – | 0.0908 | – | 0.0617 | 0.0969 | 0.0562 | – | 0.0782 | 0.0756 | – | 0.0731 | 0.0856 | 0.0635 | –
8 | T70H | 0.0641 | 0.0631 | 0.0709 | 0.0622 | 0.0689 | 0.0705 | 0.0447 | – | – | – | 0.0729 | 0.0514 | 0.061 | 0.0534 | – | 0.072 | 0.0594 | 0.0255 | – | –
9 | T70Q | 0.0492 | – | – | 0.0603 | – | – | – | – | – | 0.0624 | 0.0821 | 0.0556 | 0.0782 | – | 0.059 | 0.075 | 0.0607 | 0.067 | 0.0712 | 0.067
10 | N45C | 0.0873 | 0.111 | – | 0.102 | 0.0627 | 0.0687 | 0.061 | 0.0886 | 0.0654 | 0.0637 | 0.112 | 0.0665 | 0.0652 | 0.059 | 0.0699 | – | 0.0748 | 0.0692 | – | 0.0674
11 | N45F | 0.0641 | 0.0666 | 0.0636 | 0.0655 | 0.0552 | 0.0779 | 0.0626 | 0.0588 | 0.0548 | – | 0.0624 | 0.0611 | – | 0.059 | – | 0.0739 | 0.0565 | – | – | 0.0664
12 | K100H | 0.0903 | 0.128 | – | 0.108 | – | 0.0585 | – | 0.0807 | 0.0809 | 0.0664 | 0.0962 | 0.0634 | 0.0648 | 0.0648 | 0.0642 | 0.0973 | 0.0726 | – | 0.0665 | –
13 | Q74C | 0.105 | – | – | – | 0.0571 | 0.065 | 0.0553 | 0.116 | 0.0275 | 0.0591 | 0.0938 | – | 0.058 | 0.0504 | – | 0.0812 | – | 0.067 | 0.0432 | –
14 | Q74R | 0.0761 | 0.0989 | 0.0633 | 0.0935 | – | 0.0738 | 0.0575 | – | 0.0802 | 0.0495 | 0.0909 | 0.0531 | 0.0678 | 0.0656 | – | 0.0656 | 0.0416 | – | 0.122 | –
15 | H47M | 0.0622 | 0.0665 | 0.0669 | 0.0656 | – | – | 0.0511 | 0.0524 | 0.0611 | 0.0376 | 0.0594 | 0.0584 | – | 0.0346 | – | 0.0426 | 0.0605 | – | – | –
16 | F92E | 0.075 | 0.104 | – | 0.0805 | – | 0.0672 | 0.0588 | 0.064 | – | 0.0595 | 0.0856 | – | 0.0628 | 0.051 | 0.0659 | – | – | – | 0.0525 | –
17 | R50E | 0.0699 | – | – | 0.0961 | 0.0579 | 0.0664 | 0.062 | 0.0711 | 0.0737 | 0.0619 | 0.0983 | 0.0667 | 0.0563 | 0.0443 | 0.0583 | 0.0957 | 0.0846 | 0.063 | 0.0645 | –
18 | L112E | 0.0567 | 0.0707 | – | 0.147 | – | 0.0611 | 0.0621 | 0.01 | 0.0532 | 0.0548 | 0.0584 | 0.0606 | 0.0375 | 0.0505 | – | 0.0617 | – | – | 0.0603 | –
19 | L61E | 0.0973 | 0.167 | – | – | 0.0245 | 0.0678 | 0.0446 | 0.112 | 0.0746 | 0.066 | 0.0969 | 0.0648 | 0.0621 | 0.0665 | 0.0964 | 0.0899 | 0.0541 | – | 0.0325 | –
20 | F65M | 0.0805 | 0.102 | – | – | 0.064 | 0.0666 | 0.044 | 0.0844 | 0.076 | 0.0628 | 0.0964 | 0.0607 | 0.0689 | 0.0648 | 0.0843 | 0.0884 | – | – | 0.0568 | –
21 | F101K | 0.0636 | 0.0441 | – | 0.0323 | 0.0463 | 0.0614 | – | – | – | – | 0.0605 | – | 0.0513 | – | – | – | – | – | 0.0499 | –
22 | D69T | 0.0983 | 0.0917 | – | 0.0822 | 0.067 | – | 0.0457 | – | 0.0646 | – | 0.089 | 0.0626 | 0.0632 | 0.0348 | 0.0579 | 0.0743 | 0.0669 | – | – | –
23 | Q59F | 0.166 | 0.0355 | – | – | 0.057 | 0.058 | 0.0721 | 0.132 | 0.0705 | – | 0.104 | 0.0846 | 0.0448 | 0.0622 | 0.0637 | 0.0414 | 0.0764 | – | – | –
24 | H62S | 0.113 | 0.118 | – | 0.0972 | 0.0463 | – | – | 0.0828 | 0.0801 | 0.0581 | 0.103 | 0.0542 | 0.0435 | 0.0731 | – | 0.0754 | – | 0.0556 | – | –
25 | H62W | 0.0789 | 0.0955 | – | – | 0.0603 | 0.0639 | – | 0.1 | 0.0824 | 0.0602 | 0.0972 | 0.0673 | 0.0691 | 0.0722 | – | 0.0908 | 0.0771 | – | 0.0532 | 0.0711
